In the supplement of paper PMC11417369:
The other results are listed elsewhere or left out.

system: PfAP2-HC AP2 domain (GST-tagged); test: gcPBM binding intensity (ln(normalized median fluorescence intensity)); higher = stronger DNA binding
Procedure, shortened: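 After 1 h on an Agilent 4 × 180k array of primer-extended double-stranded 36-bp intergenic genomic probes and negative controls, bound GST-tagged P. falciparum DNA-binding domains were detected with Alexa488 anti-GST antibody and scanned at 488 nm. The domains had been expressed in E. coli, and binding took place in 1× PBS with 1% milk, 0.2 mg/ml BSA, 0.5% salmon testes DNA and 0.03% Triton X-100. Binding intensity is the highest Masliner-normalised natural-log median intensity across replicate spots of either probe orientation.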

Row | Sequence | gcPBM binding intensity (ln)
1 | AAAGGAAAATGTGTAAAAAGAAATGCTAGGTATATA [GTGCAC_negctrl_site699] | 9.89
2 | ATATATATATAATATAGTACGTATAATATATGAATC [XGTACX_site4385] | 9.99
3 | TTTTTGTTATATAAAGTGCAGTGACAAGCAGTTTAA | 9.56
4 | AGTGGTGTTAAATGTTGTACGATTTTGTGTTATTCG [XGTACX_site178] | 9.86
5 | ATTTAAGCATTATTTTGTACGAAAATAAAAAAATGA [XGTACX_site6958] | 9.57
6 | ATATAAAAAAATAAAACACACACATATATATTATAT [CACACA_site8909] | 10.8
7 | TATGTAACAAAAAAAAGTACACATATATATAGTGTA [XGTACX_site7772] | 9.78
8 | AAGATAATCACAAAATGTACAGGAAATATGACAACC [XGTACX_site3607] | 9.88
9 | ACTGCGTTTTTACACGCGCACTGCAATGAACAATAT | 9.54
10 | AATGGTATAAACAATACACACATAATATATATATTG [CACACA_site4997] | 9.88
11 | AAGAAAAAGGAACGGAAAAACAAACAAGGGGCCCAA [TGCATGCA_negctrl_site4] | 9.79
12 | TTTTCTAAATTAATAATACACACTTGCTAAAATCAT [CACACA_site3207] | 9.4
13 | AGTCTGAATAAAATTACACACATATACAGATATATA [CACACA_site5054] | 9.8
14 | ATATCATTTTCTAGCACACACATTGTTATTACCTTG [CACACA_site902] | 10.2
15 | TTTCTAAAAATAAGAACACACACATATAAGCATATA [CACACA_site8714] | 10
16 | TTTTTTTAAATATACACACACATTTATACAGATATA [CACACA_site5811] | 10.1
17 | TATTAGAACATATATGCATGCAATAGATATTCCAAT [TGCATGCA_site297] | 9.65
18 | TATGTATAATTTCATTGTACTTTTGATATTATCATA [XGTACX_site280] | 9.57
19 | TTTAAATATTACATATGTACTTATAAATATATATAT [XGTACX_site1284] | 9.84

Row | Sequence | gcPBM binding intensity (ln)
20 | AAGGAATAGGCATATACACACAGGTACAGATATATA [CACACA_site4402] | 10.1
21 | AAAAAAAAAATTGAAAGTACAAATATGTATTATATA [XGTACX_site2455] | 9.7
22 | TAATAGTATATAAAAAGTACATAATAAGATATGAAA [XGTACX_site1000] | 9.81
23 | ATTATGTGCCAATACACACACACATATATATATATA [CACACA_site468] | 10
24 | TAAAATATGTCATGTGGTACATGAATAGCTTTTATT [XGTACX_site3809] | 10.1
25 | AAAAAAAAAAAAAACACACAAATCATAAATAAATAT [CACACA_site6362] | 9.75
26 | AATAAAAATAGGAATACGCACACGATGATTAATTTA [CACACA_site1836] | 10
27 | AATTAACCCTAATTTTGTACATATTCCTTTTCTCAT [XGTACX_site46] | 9.93
28 | GTTACTATGATTAATGCATGCAAATACCAAAAAAAA [TGCATGCA_site590] | 9.61
29 | TATACCACACGATATACACACTTGTAGACATCTTTT [CACACA_site6232] | 9.83
30 | TTATATTCTAGAGACACATGCGATTTTTTATTTTAT [TGCATGCA_site649] | 9.77
31 | TGGAATAATCCGCGTACACACATATATATATTAAGA [CACACA_site4253] | 9.83
32 | AATTAATGGCTAAAGGTGCACAATATATATATTACA | 9.98
33 | AAAAAAAAATTTAAGGGTACATACAAATATATATAT [XGTACX_site5078] | 9.63
34 | TAATACGAATGAGGCACACACCTAGTATACATGCTT [CACACA_site6438] | 9.88
35 | TCCCTTCATCTTTTATGTACTAAAAAATTGAATAAT [XGTACX_site2172] | 9.41
36 | AATTAAAATTTTTGAAGTACACTCAAAATAAGTTAT [XGTACX_site4490] | 9.48
37 | CTTTTGAACAGTTCATGTACTCAATTTTTTAATAGT [XGTACX_site6498] | 9.58
38 | TAATACCTATGGTATAGTACGTATTATTTTATAGAG [XGTACX_site2078] | 9.43

Row | Sequence | gcPBM binding intensity (ln)
39 | TTTTTTTTTTTGAAATGTACATTCCAAAAACTGATA [XGTACX_site1495] | 9.67
40 | TATATATATATATATTTTTTTTTTTTATGCACATGG [CACACA_negctrl_site1573] | 9.41
41 | TATTTATAAAAAAATACATGCATTTTTTTTTTTTTT [TGCATGCA_site65] | 9.36
42 | TGTTAATTCTTAAGAATTTCCATAATTTCTTCTTTT [CACACA_negctrl_site1065] | 9.52
43 | TTTGCCATATGACACACACACATGTAAACCCCCTTT [CACACA_site6873] | 10.2
44 | TAATACAAAAACAATGTTCTTTCAAACATAAACATA [CACACA_negctrl_site1628] | 9.6
45 | TATTTTTATTGGTACTGTACCTATTTAGAAATACAT [XGTACX_site6663] | 9.64
46 | ATGATTTCATTTGAGAGTACGTAAAAATAATACGTA [XGTACX_site4958] | 9.36
47 | TTTTAATGATATATGAGTACACATTGTTTTTTATAA [XGTACX_site1072] | 9.6
48 | ATATAATGATGGAAAAGAAAAGAAATAAAAAAAAAA [CACACA_negctrl_site1170] | 9.59
49 | TTGACATATAAGATATGTACTAATACACACACATAT [XGTACX_site1904] | 10.1
50 | AAATAATAAAACAACACACAAATAGTTAAAATAGAA [CACACA_site5007] | 10.2
51 | ACATTCTATATATACACACATACATAATAAAGAAAG [CACACA_site2771] | 9.93
52 | CATATATAGATATATACACACATACATACATACATA [CACACA_site7748] | 10.1
53 | TGCATATGCATTATTTGTACATATGTAGATAATTAT [XGTACX_site6930] | 9.63
54 | AAAAATTACAAATACAAACACACAAATGTTTTTCAT [CACACA_site3551] | 9.78
55 | AATAAAATAAATATATGTACATATATATAACCATTA [XGTACX_site5549] | 9.84
56 | AGAGAAAGAAGGGAGAAAAAATAAAATAAAATAAAA [GTGCAC_negctrl_site299] | 9.5
57 | AATAAAAAAAAACTCATGCACACAATATTATGAAAA [CACACA_site664] | 9.99
